PubChem BioAssay AID686979 (National Center for Advancing Translational Sciences (NCATS), 2013)
Hit rate of the full screen: of about 420,000 compounds, about 50,000 (12%) were called active. The shares of active, inactive and inconclusive entries below differ from those in the screen. Calls come from the whole dose curve; as a rule, active = well fitted inhibition curve with a large enough effect; inconclusive = small, poorly fitted or top-dose-only effect; inactive = flat fitted curve, though single readings scatter. Potencies of inconclusive entries are left out as doubtful fits.
% is set by controls: 0 for no effect and ±100 for the full control effect; potency is the fitted concentration of half-maximal effect; tags give direction and shape of the fitted curve.

Test: qHTS for Inhibitors of human tyrosyl-DNA phosphodiesterase 1 (TDP1): qHTS in cells in presence of CPT; note: nearly all actives have a fitted effect of over 55% in size
Conditions: chicken DT40 Tdp1-/-;hTDP1 cells + 20 nM CPT, ATP luminescence, 48 h; activity change, negative = growth inhibition: at 46.2 µM (top of the series)
Outline: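 Chicken DT40 Tdp1-/- cells complemented with human TDP1, 400 cells/well, exposed to compounds plus 20 nM camptothecin for at least 48 h at 37 C; viability read as ATP content by CellTiter-Glo luminescence.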
For `C=C1Cc2c(Cl)cc3[nH]c4c5c3c2[C@@]2(O)[C@@H]1C[C@@H]2C(C)(C)O[C@H]5[C@@H]1CC[C@@]2(O)[C@@]35O[C@@H]3[C@@H](O)[C@@H](C(=O)O)O[C@H]5CC[C@]2(C)[C@@]41C`, the Potency was active: 5.8 µM.
For `CC(O)CN1C(=O)C(CC(=O)Nc2ccc(Cl)cc2)SC1=Nc1ccccc1` (centres undefined), the Potency was inconclusive [inhibitor, single point].
For `Cc1cccc(C)c1NC(=O)CCCN1C(=O)C(c2ccccc2)Oc2cccnc21` (centres undefined), the Potency was inconclusive [inhibitor, partial curve, poor fit].
In the case of `Cc1ccc(S(=O)(=O)N2CCCCC2)cc1NC(=O)c1cccs1`, the Potency was active: 25.9 µM.
In the case of `Cc1ccc2nc(CSc3nc(C)ccc3C#N)[nH]c2c1`, the Potency was active: 17.8 µM.
In the case of `O=C(Nc1ccc(F)cc1F)Nc1csc2ccccc12`, the Potency was inconclusive [inhibitor, single point].
In the case of `O=C(Oc1cccnc1)c1cc(S(=O)(=O)N2CCCCC2)ccc1Cl`, the Potency was inconclusive [inhibitor, single point].
With `CCC(=O)NNC(=S)NC(=O)c1ccc(C)cc1` the Potency was inconclusive [inhibitor, single point].
For `O=C(O)CCCN1C(=O)NC2NC(=O)NC21` (centres undefined), the Potency was “inactive”.
With `COc1ccccc1C(=O)O[C@H]1[C@H](Cc2ccccc2)NS(=O)(=O)[C@H]2C[C@@H]3C=C[C@]12O3` the Potency was “inactive”.
In the case of `CC(=O)c1c(O)c(C)c(O)c2c1OC1=Cc3c(c(C)nn3C)C(=O)C12C` (centres undefined), the Potency was active: 16.4 µM.
In the case of `Clc1cccc(OCCn2cncn2)c1Cl`, the Potency was “inactive”.
For `CC(CNC(=O)c1ccc(CSc2nc3ccncc3n2Cc2ccccc2)cc1)c1ccccc1` (centres undefined), the Potency was inconclusive [inhibitor, single point].
In the case of `O=C(COc1ccc([N+](=O)[O-])cc1)Nc1ccc(N2CCCC2)cc1`, the Potency was “inactive”.
For `CCC(=O)c1ccc(-c2ccccc2)cc1`, the Potency was “inactive”.
For `COc1ccc(-c2nnc(SCC(=O)N3CCCCC3)o2)c(OC)c1`, the Potency was inconclusive [inhibitor, single point].
In the case of `CCOc1ccccc1-c1noc(CCC(=O)Nc2cccnc2)n1`, the Potency was inconclusive [inhibitor, single point].
For `Cn1c(=O)cc(C(=O)N/N=C/c2ccc(F)cc2)[nH]c1=O`, the Potency was “inactive”.
For `CCOC(=O)c1ccc(NC(=O)NCCOCCn2c(=O)oc3ccccc32)cc1`, the Potency was inconclusive [inhibitor, single point].
In the case of `O=c1cnc2cnc(Nc3ccccc3)nc2n1CCc1ccccc1`, the Potency was “inactive”.
In the case of `CCCc1nnc(NC(=O)c2nc(S(=O)(=O)Cc3cccc(C)c3)ncc2Cl)s1`, the Potency was inconclusive [inhibitor, single point].
For `Nc1cc2c(cc1[N+](=O)[O-])OCO2`, the Potency was “inactive”.
With `Oc1ccc(N=Cc2sc3ccccc3c2Cl)cc1` the Potency was active: 13 µM.
For `CC(C)CNC(=O)c1nn(Cc2ccccc2)c(=O)c2ccccc12`, the Potency was inconclusive [inhibitor, partial curve].
In the case of `CCOC(=O)c1cc(S(=O)(=O)N2CCN(c3ccc(C(C)=O)cc3)CC2)[nH]n1`, the Potency was active: 18.4 µM.
For `Cc1cc(=O)[nH]c(N2CCCNCC2)n1`, the Potency was “inactive”.
With `CCOc1ccc(NC(=O)COc2ccc(C(=O)NC(C)c3ccc(S(N)(=O)=O)cc3)cc2OC)cc1` (centres undefined) the Potency was “inactive”.
In the case of `Cc1cc(C)nc(SCC(=O)N/N=C/c2cccn2-c2cccc(C(F)(F)F)c2)n1`, the Potency was inconclusive [inhibitor, single point].
For `Cc1cccc(NC(=O)c2ncn3c2C(=O)NC[C@@H]3C)c1`, the Potency was “inactive”.
In the case of `CC1C(=O)N(Cc2cn(Cc3ccco3)nn2)CCS(=O)(=O)N1Cc1ccc(-c2cccc(N(C)C)c2)cc1` (centres undefined), the Potency was active: 25.9 µM.
With `CS(=O)(=O)N(Cc1ccccc1)c1ccc(C(=O)Nc2ccccc2C(=O)O)cc1` the Potency was “inactive”.
With `O=C1C=CN(C2OC(CO)C(O)C2O)C(=O)C1` (centres undefined) the Potency was active: 8.2 µM.
For `Cn1nnc(NC(=O)COc2ccc(C3CCCCC3)cc2)n1`, the Potency was “inactive”.
For `CCN(CC)CCNc1nc2nonc2nc1NCCN(CC)CC`, the Potency was “inactive”.
With `CC(C)(CO)NCc1ccc(Br)cc1` the Potency was active: 20.6 µM.
With `COc1ccc(Oc2ccc(/C=C/C(=O)c3cccc(OC)c3)cc2[N+](=O)[O-])cc1` the Potency was active: 7.31 µM.
With `Cc1ccccc1CN(c1ccc(C(=O)NCc2ccccn2)cc1)S(C)(=O)=O` the Potency was “inactive”.
With `CN1CCN(S(=O)(=O)c2ccc(NC(=O)c3ccc(Br)s3)cc2)CC1` the Potency was inconclusive [inhibitor, single point].
For `Cc1cc2oc3c(c(=O)c2cc1C)C1(C(=O)N(C)c2ccccc21)N(CCO)C3=O` (centres undefined), the Potency was “inactive”.
With `COCCNC(=O)c1onc(CSc2ccccc2)c1C(=O)NCCOC` the Potency was “inactive”.
In the case of `COC(=O)c1ccc(N=C2S/C(=C\c3cc(C)n(-c4cccnc4)c3C)C(=O)N2C)cc1`, the Potency was inconclusive [inhibitor, single point].
With `NC(=S)Nc1ccc(C(F)(F)F)cc1Cl` the activity change, negative = growth inhibition was inconclusive: -31.3% [inhibitor].
With `CCN(CC)CCNC(=O)c1ccc2nc(CCc3ccccc3)oc2c1` the Potency was inconclusive [inhibitor, single point].
With `COc1ccc(CN(CC(O)COc2cccc3[nH]cc(C)c23)C(C)(C)C)cc1` (centres undefined) the Potency was inconclusive [inhibitor, single point].
With `CCC(=O)N/C(=N/c1nc(C)cc(C)n1)Nc1cccc(OC)c1` the Potency was inconclusive [inhibitor, partial curve].
In the case of `COc1ccc(N2CCN(C(=O)CN3C(=O)NC(C)(C4CC4)C3=O)CC2)cc1` (centres undefined), the Potency was “inactive”.
For `CC(=O)c1ccc(NC(=O)c2ccc(-c3ccc(Cl)cc3)o2)cc1`, the Potency was inconclusive [inhibitor, single point].
For `CCOC(=O)[C@H]1[C@H]2COc3ccc(OC)cc3[C@@H]2N2C(=O)c3cc(F)c(F)cc3NC(=O)[C@@]12C`, the Potency was inconclusive [inhibitor, single point].
For `COc1ccccc1NC(=O)C1CCN(C(=O)c2sc3nc[nH]c(=O)c3c2C)CC1`, the Potency was “inactive”.
